# In PMC4336329 (PLoS ONE, 2015):
# Out of some 310,000 compounds screened, about 14,000 (4.5%) showed an effect of 50% or more. Effects have a minus sign here. The list shows a part of the results.
# Biological target: human ether-à-go-go-related gene (hERG) potassium channel (human, UniProt Q12809)
# Assay: primary screen, population patch clamp on CHO cells stably expressing hERG
# 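Further: peak tail current of the secondary pulse compared with the same well before compound.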
# Sequence of human ether-à-go-go-related gene (hERG) potassium channel (Q12809 whole entry, looked up): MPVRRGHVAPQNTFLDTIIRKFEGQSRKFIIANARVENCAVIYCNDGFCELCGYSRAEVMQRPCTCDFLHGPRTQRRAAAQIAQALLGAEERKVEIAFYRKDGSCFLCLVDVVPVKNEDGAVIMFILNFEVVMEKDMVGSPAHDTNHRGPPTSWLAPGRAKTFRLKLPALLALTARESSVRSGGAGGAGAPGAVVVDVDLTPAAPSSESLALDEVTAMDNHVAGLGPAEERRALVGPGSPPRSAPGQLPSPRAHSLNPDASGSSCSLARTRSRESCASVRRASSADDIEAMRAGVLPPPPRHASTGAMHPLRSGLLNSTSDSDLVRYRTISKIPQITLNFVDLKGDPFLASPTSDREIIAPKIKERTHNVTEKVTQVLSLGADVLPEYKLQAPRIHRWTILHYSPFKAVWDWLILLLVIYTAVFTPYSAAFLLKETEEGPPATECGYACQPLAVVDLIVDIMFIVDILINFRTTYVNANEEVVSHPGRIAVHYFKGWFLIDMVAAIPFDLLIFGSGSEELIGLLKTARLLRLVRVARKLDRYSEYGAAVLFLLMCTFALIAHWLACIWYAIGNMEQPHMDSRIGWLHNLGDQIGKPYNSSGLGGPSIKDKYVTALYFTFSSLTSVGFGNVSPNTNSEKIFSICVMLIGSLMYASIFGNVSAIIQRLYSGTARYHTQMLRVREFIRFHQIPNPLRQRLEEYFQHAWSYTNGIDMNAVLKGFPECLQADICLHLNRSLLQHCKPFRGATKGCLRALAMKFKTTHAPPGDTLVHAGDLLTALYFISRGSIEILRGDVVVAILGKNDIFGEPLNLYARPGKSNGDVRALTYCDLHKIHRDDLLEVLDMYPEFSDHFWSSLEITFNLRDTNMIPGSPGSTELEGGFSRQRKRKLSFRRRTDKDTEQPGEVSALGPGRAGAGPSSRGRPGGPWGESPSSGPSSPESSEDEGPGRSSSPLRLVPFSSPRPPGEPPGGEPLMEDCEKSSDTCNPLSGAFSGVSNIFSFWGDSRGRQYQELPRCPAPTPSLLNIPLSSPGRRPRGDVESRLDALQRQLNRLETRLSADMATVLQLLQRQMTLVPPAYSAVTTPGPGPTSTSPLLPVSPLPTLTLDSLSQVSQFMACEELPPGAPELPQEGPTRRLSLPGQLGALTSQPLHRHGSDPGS
row,Compound,"hERG current change (%, negative = inhibition) at 10uM [%]"
1,COc1cccc(OC)c1C(=O)Nc1sc2c(c1C#N)CCC2,4.8
2,O=C(CNC(=O)c1ccco1)NCC(=O)OC(C(=O)c1ccccc1)c1ccc(Cl)cc1 (stereo not drawn),-12.9
3,CN1CCN(S(=O)(=O)c2cccc(C(=O)N3CCN(c4ccccc4F)CC3)c2)CC1,-0.195
4,CS(=O)(=O)N(CC(=O)N1CCN(c2cccc(Cl)c2)CC1)C1CCCCC1,-4.68
5,CC1=NN(c2ccccc2)C(=O)/C1=C\c1c(C)[nH]n(-c2ccccc2)c1=O,0.917
6,O=C(Nc1ccccc1C(F)(F)F)N1CCN(c2ccc3nncn3n2)CC1,-1.32
7,Cc1nnc(SCC(=O)Nc2ccc([N+](=O)[O-])cc2)n1CC1CCCO1 (stereo not drawn),-55.5
8,CNC(=O)c1ccccc1-c1ccccc1,-7.57
9,CN1CCN(Cc2ccccc2C(F)(F)F)CC1,1.94
10,Cc1ccc(CC2C(=O)N(c3ccc(C)cc3)C(=O)C2C)cc1 (stereo not drawn),22.5
11,Cc1ccc2c(c1)C(=O)C(=O)N2CCOc1ccccc1,-5.83
12,CCc1cc2c(SCC(=O)C(C#N)=C3N(C)c4ccccc4N3C)ncnc2s1,-25.2
13,CCOC(=O)c1c(C)oc2c1c(CN1CCN(C(=O)OCC)CC1)c(O)c1ccccc12,7.69
14,Cc1ccn2c(=O)nc(SCC(=O)NCc3ccco3)nc2c1,4.07
15,COCCn1c(SCC(=O)N2CCc3ccccc32)nc2c(c1=O)SC(C)C2 (stereo not drawn),-36.9
16,O=c1nc2c(-c3ccccc3F)n[nH]n2c2ccccc12,11.7
17,COc1c(C)cc(Br)cc1C(=O)Nc1ccc(N2CCN(S(C)(=O)=O)CC2)cc1,6.34
18,CCOC(=O)c1cnc2c([N+](=O)[O-])cnn2c1C,-1.44
19,CC[n+]1c(-c2ccccc2)csc1Nc1c(C)n(C)n(-c2ccccc2)c1=O.[Br-],3.58
20,O=C1CCCC(O)=C1C1C2=C(CCCC2=O)Oc2ccccc21 (stereo not drawn),-6.91
21,CCc1ccc(C(=O)COC(=O)c2ccccc2OC)cc1,-6.34
22,Cc1cccc(-n2ncc3c(N4CC(C)CC(C)C4)ncnc32)c1 (stereo not drawn),8

row,Compound,"hERG current change (%, negative = inhibition) at 10uM [%]"
1,Cc1ccc(/C=N/NC(=O)C[n+]2ccccc2)s1.[Cl-],19
2,CN(C)/C=C1\C=C2C(=O)c3ccccc3N2C1=O,12.9
3,O=[N+]([O-])c1cc2c(c(CSc3nnc(Nc4ccccc4)s3)c1)OCOC2,14.2
4,COc1ccccc1CN1CCN(C(=O)c2ccncc2)CC1,4.92
5,C=CCc1ccccc1OCC(O)CN1CCN(CCN2C(=O)c3cccc4cccc(c34)C2=O)CC1.Cl (stereo not drawn),-57.8
6,CCN(CC)c1ccc(/C=N/Nc2nc(C)cc(C)n2)cc1,-15.5
7,COc1cc(NC(=O)CSc2ncnc3sc4c(c23)CCCC4)c(C(=O)O)cc1OC,-4.76
8,COc1ccc(N2Cc3ccccc3C2=NC(=O)c2cccc([N+](=O)[O-])c2)cc1,-4.7
9,COCCn1c(SCC(=O)NC2CC2)nnc1-c1ccc(Cl)cc1,-4.51
10,O=C(NCc1cccs1)C1CC(=O)N(C2CCCC2)C1 (stereo not drawn),5.38
11,Cc1cnc(C(=O)Nc2ccccc2-n2cccc2)cn1,-48.3
12,C=CCSc1nc(C)c(CCC(C)C)c(=O)[nH]1,-9.72
13,COc1cc(C(=O)Nc2ccc(S(=O)(=O)Nc3nccc(C)n3)cc2)c([N+](=O)[O-])cc1OC,11.6
14,CCOc1ccccc1/C=N/NC(=O)c1cc(C(C)C)[nH]n1,8.78
15,Cc1ccc(-c2nnc(N(C)C(=O)c3ccncc3)s2)cn1,1.62
16,O=C(OCc1nc2ccccc2s1)c1ccc([N+](=O)[O-])o1,15
17,O=C(c1ccc(Cl)cc1)C12CN3CN(CN(C3)C1)C2,-1.03
18,O=C(Cc1ccccc1[N+](=O)[O-])NCCCc1ccccc1,-3.31
19,CCCNC(=S)N1CCC(NC(=O)c2cccc(C)c2)CC1,11.1
20,CCC(C)(C)NC(=O)C(c1cccn1C)N(C(=O)Cn1nnc2ccccc21)c1ccc(OC)cc1 (stereo not drawn),4.68
21,CC(OC(=O)C1CCN(S(=O)(=O)c2ccccc2)CC1)C(=O)Nc1ncc(Cl)cc1Cl (stereo not drawn),-64
22,Cc1ccc2c(c1)c(=O)c1c3n2CCN(CC2CO2)C3CC1 (stereo not drawn),4.27

row,Compound,"hERG current change (%, negative = inhibition) at 10uM [%]"
1,O=C(COC(=O)CSc1ccc([N+](=O)[O-])cc1)NCC1CCCO1 (stereo not drawn),12.3
2,Clc1ccc(Nc2nc(-c3cccnc3)cs2)cc1,1.8
3,Cc1ccc2c(c1)N(CC(=O)NCCCN1CCCCC1)C(=O)c1cccnc1O2,-0.0427
4,O=S(=O)(c1ccc2nc(Nc3ccccc3)ccc2c1)N1CCCCC1,3.25
5,O=c1c2ccccc2nc(/C=C/c2ccc(Br)cc2)n1CCCO,0.999
6,COc1cc(/C=C2/C(=O)N(c3ccc(C(=O)O)cc3)N=C2C)cc(OC)c1O,14.9
7,CC(Sc1nc2ncc(Cl)cc2[nH]1)C(=O)c1c(N)n(C)c(=O)n(C)c1=O (stereo not drawn),-12.7
8,CCCCCC(C)NC(=O)c1ccoc1C (stereo not drawn),-10.4
9,COc1ccc(C(CNC(=O)COc2ccc(F)cc2Br)N2CCCC2)cc1 (stereo not drawn),-64.5
10,Nc1ncc(Br)cc1S(=O)(=O)N1CCCCCC1,9.6
11,Cc1ccc(Cn2ccc(NC(=O)c3cc(-c4ccc(F)cc4)on3)n2)cc1,8.53
12,CCOc1cccc(C(=O)Nc2cccc(C(=O)NCC(C)C)c2)c1,-42.8
13,N#CC1(NC(=O)CSc2nnc(Nc3ccccc3F)s2)CCCC1,0.45
14,CCN(CCCNC(=O)CN1C(=O)COc2ccccc21)c1ccccc1,-5.53
15,CCOCC(O)CSCc1ccc(Cl)cc1 (stereo not drawn),1.1
16,CS(=O)(=O)N(CC(=O)N1CCC(C(N)=O)CC1)c1ccc(Oc2ccccc2)cc1,-23.9
17,CCOC(=O)C1(Cc2ccccc2)C(=O)Nc2ccccc21 (stereo not drawn),-1.59
18,COc1ccc(CCNC(=O)CC2SC(=NCCc3ccccc3)NC2=O)cc1OC (stereo not drawn),10.2
19,Cn1c(=O)n(C)c2cc([N+](=O)[O-])c(N3CCN(C(=O)c4ccc(Cl)cc4)CC3)cc21,-65.9
20,Cc1ccc(NC(=O)OCCNC(=O)OC(C)C)cc1,10.2
21,Cc1ccc(C2C(C#N)=C(N)OC3=C2C(=O)CCC3)s1 (stereo not drawn),14
22,FC(F)(F)c1ccc(Cl)c(NC(=S)N/N=C/c2ccccc2Cl)c1,5.74

row,Compound,"hERG current change (%, negative = inhibition) at 10uM [%]"
1,CCn1c(CNC(=O)Cc2ccc(OC)cc2)nnc1SCC(=O)c1ccc(Br)cc1,-4.64
2,COc1cc2[nH]c(=O)n(CCCCCC(=O)NCCc3c[nH]c4ccccc34)c(=O)c2cc1OC,-5.15
3,CC(C)n1ncc2c(C(=O)Nc3cccc(C#N)c3)cc(C3CC3)nc21,-40.6
4,COC(Cn1cc(C)c(=O)[nH]c1=O)OC,16.3
5,CCOC(=O)C1=C(CSc2nc3ccccc3s2)NC(=O)NC1c1cc(C)ccc1C (stereo not drawn),-3.57
6,O=P(c1ccc2c(c1)OCCO2)(N1CCOCC1)N1CCOCC1,-12.4
7,COc1ccc(C2/C(=C(\O)c3ccc(OC)c(Cl)c3)C(=O)C(=O)N2CCN(C)C)cc1 (stereo not drawn),10.3
8,COc1ccc(CNc2ncnc3cc(OC)c(OC)cc23)cc1OC,37
9,CN(C(=O)CN1C(=O)NC(C)(CCc2ccccc2)C1=O)c1ccccc1 (stereo not drawn),4.77
10,Cc1ccccc1C(=O)Nc1cc(NC(=O)c2ccccc2C)cc(C(=O)O)c1,11.5
11,Cc1cccc(NS(=O)(=O)c2c(C)nc3scc(C)n3c2=O)c1,-65.2
12,O=C(Cn1c2ccccc2c(=O)c2ccccc21)Nc1cccc(F)c1,12.8
13,Cc1ccccc1Oc1ccc(S(=O)(=O)NCCC(=O)O)cc1,18.1
14,COC(=O)c1ccc2[nH]c3cccc(/C(=C/c4ccccc4)c4ccccc4)c3c2c1,13.1
15,O=C(C1=C[C@@H](c2ccccc2)C[C@@H](OCCCCO)O1)N1CCOCC1,1.52
16,COC(=O)CN1C(=O)C(O)(CC(=O)c2ccc(C)cc2)c2cc(Br)ccc21 (stereo not drawn),-17.7
17,CCN(CC)C(=O)c1ccc(NC(=O)c2c(C)noc2C)cc1,-3.24
18,COc1ccc(CNC(=O)COC(=O)c2c(NC(C)=O)sc(C)c2C)cc1,0.943
19,COCCCNC(=O)CSc1nc2ccccc2c(=O)n1Cc1ccc2c(c1)OCO2,12.4
20,Cc1ccc(NC(=O)c2cnc(SCC(=O)NCC3CCCO3)n(C)c2=O)cc1C (stereo not drawn),-43.2
21,Cc1ccc(-n2nc3c(c2NC(=O)/C=C\c2ccc4c(c2)OCO4)CSC3)c(C)c1,3.72
